According to publication PMC4336329 (PLoS ONE, 2015):
Hit rate of the full screen: of about 310,000 compounds, about 2,200 (0.71%) showed an effect of 50% or more. The effect is printed as a negative number. The list shows a part of the results.

molecular target: human ether-à-go-go-related gene (hERG) potassium channel (human, UniProt Q12809); test: primary screen, population patch clamp on CHO cells stably expressing hERG
Sequence (Q12809 whole entry, looked up): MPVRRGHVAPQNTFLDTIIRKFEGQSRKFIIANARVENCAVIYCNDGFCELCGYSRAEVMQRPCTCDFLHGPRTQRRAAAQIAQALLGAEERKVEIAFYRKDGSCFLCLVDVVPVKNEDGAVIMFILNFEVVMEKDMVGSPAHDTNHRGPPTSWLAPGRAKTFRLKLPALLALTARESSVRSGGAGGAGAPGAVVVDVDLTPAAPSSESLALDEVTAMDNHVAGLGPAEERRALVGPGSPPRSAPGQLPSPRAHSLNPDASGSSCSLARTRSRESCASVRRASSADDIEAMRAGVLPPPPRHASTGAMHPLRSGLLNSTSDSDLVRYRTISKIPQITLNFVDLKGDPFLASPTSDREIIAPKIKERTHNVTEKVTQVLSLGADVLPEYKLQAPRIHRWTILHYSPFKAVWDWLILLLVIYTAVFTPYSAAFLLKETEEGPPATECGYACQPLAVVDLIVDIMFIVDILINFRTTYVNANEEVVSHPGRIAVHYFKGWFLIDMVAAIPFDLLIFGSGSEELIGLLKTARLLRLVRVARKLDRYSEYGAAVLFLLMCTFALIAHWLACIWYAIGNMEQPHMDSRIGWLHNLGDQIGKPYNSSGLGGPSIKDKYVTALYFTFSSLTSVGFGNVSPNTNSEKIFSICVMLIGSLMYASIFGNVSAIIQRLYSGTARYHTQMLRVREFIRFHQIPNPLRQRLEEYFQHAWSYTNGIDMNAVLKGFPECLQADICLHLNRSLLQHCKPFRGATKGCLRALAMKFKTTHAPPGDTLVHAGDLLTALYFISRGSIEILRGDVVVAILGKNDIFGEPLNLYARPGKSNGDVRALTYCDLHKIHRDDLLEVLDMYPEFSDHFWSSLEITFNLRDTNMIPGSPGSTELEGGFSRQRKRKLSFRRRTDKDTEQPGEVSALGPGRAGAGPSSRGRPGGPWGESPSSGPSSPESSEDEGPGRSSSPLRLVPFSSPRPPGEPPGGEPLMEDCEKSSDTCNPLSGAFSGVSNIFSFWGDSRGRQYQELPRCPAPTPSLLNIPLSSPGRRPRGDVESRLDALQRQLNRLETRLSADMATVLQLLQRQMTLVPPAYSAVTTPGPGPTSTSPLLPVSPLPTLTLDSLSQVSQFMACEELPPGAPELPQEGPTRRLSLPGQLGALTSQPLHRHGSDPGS

Row | Structure (SMILES) | hERG current change (%, negative = inhibition) at 1uM
1 | CCOc1cc(C)c(Cl)cc1S(=O)(=O)n1ccnc1 | 21.2%
2 | COc1cc(S(=O)(=O)N(Cc2ccc(C)cc2)Cc2ccco2)ccc1-n1cnnn1 | 11.9%
3 | Cc1ccc(NC(=O)Cn2c(=O)oc3ccccc32)cc1 | 13.7%
4 | CCOC(=O)C1=C(N)OC2=C(C(=O)CCC2)C1c1ccco1 (stereo not drawn) | 10.2%
5 | CCN(CC(=O)Nc1cccc(OC)c1)c1ncnc2sc(C)c(C)c12 | 6%
6 | COc1ccc(C)cc1NC(=O)CSc1nnc(-c2ccc(OC)c(OC)c2)n1N | 5.2%
7 | CC(C)=CCc1cc2c(=O)c3c(O)c4c(cc3oc2c(O)c1O)OC(C)C4(C)C (stereo not drawn) | 1.68%
8 | CC(C)[C@H](NC(=O)N1CC(=O)Nc2ccccc21)C(=O)N[C@@H](Cc1c[nH]c2ccccc12)C(=O)O | 7.96%
9 | CC(=O)c1c(C)[nH]c(C(=O)NCc2ccccc2F)c1C | 7.02%
10 | CC(C)(C)c1ccc(-n2ncc3c2CCCC3NC(=O)c2cnccn2)cc1 (stereo not drawn) | 5.49%
11 | Cc1ccc(Nc2ncnc3c2cnn3C)cc1 | -19%
12 | CC(=O)c1ccc(NC(=O)Cn2c3ccccc3c3nc(=O)cc(C)n32)cc1 | 5.54%
13 | O=C(NCCN1CCC(Cc2ccccc2)CC1)C1CCN(S(=O)(=O)N2CCC3(CC2)OCCO3)CC1 | 6.01%
14 | Cc1nn(Cc2ccccc2)c(C)c1C(=O)NCCN1C(=O)S/C(=C\c2ccc(F)cc2)C1=O | 5.07%
15 | Cc1ccc(SCC2=NN(c3nc(C)cc(C)n3)C(=O)C2)cc1 | 10.4%
16 | CC(=O)OCC[N+](C)(C)C.[O-][Cl+3]([O-])([O-])[O-] | 11.1%
17 | Cc1nc2ccc(NC(=S)NC3CC3)cc2nc1C | 5.13%
18 | CC(=O)N(C(C)=O)c1ccc2nc(C)[nH]c(=O)c2c1 | 12.1%
19 | Cc1cc(C(=O)COC(=O)CCC(=O)c2ccc3c(c2)OCCO3)c(C)n1Cc1ccco1 | 12%
20 | CC(=O)NCCn1c(SCc2cc(=O)n3cc(Cl)ccc3n2)nc2ccccc2c1=O | -25.5%
21 | c1ccc(-c2nnc(CSc3nnc(-c4ccncc4)n3Cc3ccco3)o2)cc1 | -8.88%

Row | Structure (SMILES) | hERG current change (%, negative = inhibition) at 1uM
22 | COc1ccc(/C=C(/C(=O)Nc2ccccc2C(=O)N2CCCC2)c2ccccc2)cc1 | 8.37%
23 | Cc1c(NS(=O)(=O)c2ccc(NC3CCCC3)c([N+](=O)[O-])c2)c(=O)n(-c2ccccc2)n1C | 7.77%
24 | COCC(=O)Nc1nc2n(n1)C(c1ccccc1Cl)CC(c1ccc(OC)cc1)N2 (stereo not drawn) | -2.3%
25 | COc1ccc(C)cc1NC(=O)C(NCC1CCCO1)c1ccccc1 (stereo not drawn) | -18.8%
26 | CN(c1ccc(-c2csc(NC(=O)C3CC(=O)N(Cc4ccco4)C3)n2)cc1)S(C)(=O)=O (stereo not drawn) | 3.8%
27 | CN(C)CCCN(Cc1ccccc1)C(=S)Nc1ccc(OC(F)F)cc1 | -43.7%
28 | CCn1cc(C(=O)NCC(OC)OC)c(=O)c2cc(S(=O)(=O)N3CCOCC3)ccc21 | 12%
29 | COc1ccc(N(Cc2ccccc2)C(=O)CSc2nnc(Cn3nnc4ccccc43)o2)cc1 | 9.42%
30 | COCCNC(=S)N(Cc1cccnc1)Cc1ccc(OC)c(OC)c1.O=C(O)C(=O)O | 11.3%
31 | Cc1cc(C(=O)CSc2nnc(-c3ccccc3)n2-c2ccccc2)c(C)n1-c1ncn[nH]1 | 16.7%
32 | CCc1noc(C)c1C(=O)NNC(=O)c1ccccc1F | 18.1%
33 | c1ccc(-c2onc(-c3ccco3)c2-c2ccc3[nH]ccc3c2)cc1 | 13.2%
34 | CSCCC(NC(=O)c1cccc(S(=O)(=O)N2CCOCC2)c1)c1nc2ccccc2[nH]1 (stereo not drawn) | 10.6%
35 | COCCN1C(=O)/C(=C/c2ccc(OCc3ccc(C(=O)O)cc3)c(OC)c2)SC1=Nc1ccccc1 | 2.85%
36 | CC(=NCCN1CCNCC1)C1=C(O)CC(C)(C)CC1=O | 7.57%
37 | O=c1cc(CSc2nnc(-c3ccco3)o2)c2ccccc2[nH]1 | 2.65%
38 | Cc1nc2c(-c3ccccc3)c(C)nn2c(C)c1CCC(=O)O | 4.88%
39 | Cn1c(/N=C/c2ccc3c(c2)OCO3)nc2ccccc21 | 1.23%
40 | COc1cc(C)cc(CN2CC=C(c3ccccc3)CC2)c1O | -5.94%
41 | O=C(C[n+]1ccc2ccccc2c1)Nc1cc(C(F)(F)F)ccc1Cl.[Cl-] | -13.1%
42 | Cc1nn(CCCC(=O)Nc2nccs2)c(C)c1[N+](=O)[O-] | 5.88%

Row | Structure (SMILES) | hERG current change (%, negative = inhibition) at 1uM
43 | COC(=O)c1ccc(-n2nnnc2SC)cc1 | 2.86%
44 | CCc1cc(Br)ccc1NC(=S)NCCc1ccccc1 | 13.2%
45 | CN=C(SCc1cc2c(cc1Cl)OCO2)c1c(O)n(C)c(=O)n(C)c1=O | 11.4%
46 | O=C(NN(C(=O)C1CC1)c1nc2ccccc2s1)C1CC1 | 11.5%
47 | CCOc1ncccc1C(=O)Nc1c(C)n(C)n(-c2ccccc2)c1=O | 11.8%
48 | CCn1c(SCC(=O)Nc2sc3c(c2C(N)=O)CCC(C)C3)nnc1-c1ccco1 (stereo not drawn) | -1.16%
49 | CC(=O)Nc1nc(-c2ccc([N+](=O)[O-])cc2)cs1 | 6.83%
50 | Cc1cc(S(=O)(=O)NCC(C)C)ccc1OCC(=O)NCC1CCCO1 (stereo not drawn) | 17%
51 | Cc1cccc(N2CCN(C(=O)c3ccc(N4CCCC4=O)cc3)CC2C)c1 (stereo not drawn) | 5.09%
52 | COc1ccc(/C=C/C(=O)Oc2cccc(/C=N/NC(=O)COc3c(C)cccc3C)c2)cc1 | 15.6%
53 | CCn1cc(C2=NC(c3ccccc3)CO2)c2ccccc21 (stereo not drawn) | 12.1%
54 | Cc1nc(-c2ccccn2)sc1C(=O)Nc1ccc(F)cc1 | 11.5%
55 | O=C(Nc1ccc(F)cc1)N1CCN2C(=O)c3ccccc3C12c1ccccc1 (stereo not drawn) | 8.35%
56 | CCNC(=O)O/N=C(\C)c1sc(-c2ccccc2)nc1C | 5.69%
57 | CC(C)(C)Nc1ncnc2sc(-c3ccccc3)cc12 | 17.9%
58 | CCN1CCN(CCC(=O)Nc2ccc3c(c2)OCO3)CC1.Cl | 15.4%
59 | CCc1nnc(NC(=O)c2ccc(-c3ccc(Cl)cc3)o2)s1 | 10.9%
60 | CCOc1ccc2nc(Cl)c(C3CC(c4ccccc4)=NN3C(=O)c3ccco3)cc2c1 (stereo not drawn) | 1.85%
61 | CCOc1ccc(CCNS(=O)(=O)c2cc3c(cc2C)NC(=O)CO3)cc1OCC | -1.2%
62 | Cc1cc(NC(=O)CCC(=O)N(Cc2ccco2)C2(C(=O)NC3CCCCC3)CCCC(C)C2)no1 (stereo not drawn) | 7.72%
63 | COc1ccc(CC(=O)NNC(=O)COc2ccc(Cl)cc2C)cc1S(=O)(=O)N1CCOCC1 | 0.155%

Row | Structure (SMILES) | hERG current change (%, negative = inhibition) at 1uM
64 | C/C(CC(=O)Nc1cccc2c1CCCC2)=N\NC=O | 17.5%
65 | CCS(=O)(=O)Nc1cccc(C(=C2CCCCC2)c2cnc[nH]2)c1 | -5.73%
66 | COc1ccc(NC(=O)C(NC(C)=O)C(=O)NCc2ccccc2Cl)cc1 (stereo not drawn) | 6.79%
67 | N/C(=N\S(=O)(=O)c1cc(C(F)(F)F)cc(C(F)(F)F)c1)c1ccccc1 | 14.4%
68 | C=CCNC(=S)/N=C/c1c(O)[nH]c(=O)[nH]c1=O | -13.5%
69 | c1cncc(-c2nnc3n2C2(CCCCC2)Cc2ccccc2-3)c1 | 8.2%
70 | CC(=O)c1cccc(NC(=O)N2CCCC2C(=O)Nc2ccc3c(c2)OCCO3)c1 (stereo not drawn) | 3.96%
71 | CCN(CC)S(=O)(=O)c1ccc(OC)c(NC(=O)C2CC(=O)N(c3ccc4c(c3)OCCO4)C2)c1 (stereo not drawn) | 4.74%
72 | CCc1ccc(NC(=O)c2sc3nc(C)nc(N4CCN(c5ccccn5)CC4)c3c2C)cc1 | 10.4%
73 | CCOc1ccc(N2C(=O)Nc3ccc(Br)cc3C2(O)C(=O)NC(C)C)cc1 (stereo not drawn) | 12.9%
74 | COc1ccc(NS(=O)(=O)c2cc(NC(=O)c3ccc(=O)[nH]n3)ccc2C)cc1 | 14.6%
75 | COC(=O)CCCC1=CC2=CC(=O)C(C)(OC(=O)c3cccs3)C(=O)C2=CN1Cc1ccccc1 (stereo not drawn) | -11.3%
76 | O=C(CSc1nnc(-c2cccc(Cl)c2)o1)Nc1ccc2c(c1)OCCO2 | 6.13%
77 | CCN(CC)S(=O)(=O)c1ccc(Nc2nc3ccccc3n3nnnc23)cc1 | 13.7%
78 | C=CCn1c(-c2cccc(S(=O)(=O)N(CC)CC)c2)n[nH]c1=S | 5.04%
79 | N#CC(c1nc2ccccc2nc1N1CCCC1)S(=O)(=O)c1cccs1 (stereo not drawn) | 16.6%
80 | Cc1ccc(CN2CCC(N3CCC(C(=O)NCC4CCCO4)CC3)CC2)o1 (stereo not drawn) | 5.54%
81 | Cc1nc2ccc(Cl)cc2c(-c2ccccc2)c1CC(=O)O | 11.6%
82 | C=CCn1c2ccccc2c2nnc(SC(CC)C(=O)Nc3nc(C)c(C(=O)OCC)s3)nc21 (stereo not drawn) | -16.2%
83 | CN(C)S(=O)(=O)c1cccc(NC(=O)CSc2nnnn2-c2ccccc2)c1 | 6.26%
84 | CCn1cc([N+](=O)[O-])c(C(=O)N2N=C(c3ccc(OC)cc3OC)CC2c2ccccc2O)n1 (stereo not drawn) | 8.94%
